Experimental findings from the antibiotic and cytotoxicity screens of Wong et al. (2023) are described below.

Some of the results follow.

In the experiment the test system is HepG2. The experiment can be described thus: cytotoxicity call (relative viability < 0.9). The note with it: 10 µM.
Turning to `Cc1ccc(S(=O)(=O)N2C[C@@H](O)COC[C@H]3O[C@H](CC(=O)NCc4ccc(F)c(F)c4)CC[C@@H]32)cc1`, the cytotoxicity call was “inactive”.

Regarding `C[C@@H]1CN([C@H](C)CO)C(=O)c2cc(NS(=O)(=O)c3cn(C)cn3)ccc2O[C@@H](C)CCCCO[C@H]1CN(C)S(=O)(=O)c1ccccc1`, the cytotoxicity call is “inactive”.

Regarding `C[C@H]1CN([C@@H](C)CO)C(=O)c2cccc(NC(=O)C3CCOCC3)c2O[C@H]1CN(C)S(=O)(=O)c1ccc(Cl)cc1`, the cytotoxicity call is “inactive”.

For the compound `C[C@H](CO)N1C[C@H](C)[C@H](CN(C)C(=O)c2ccncc2)OCCCC[C@H](C)Oc2ccc(NS(=O)(=O)c3cn(C)cn3)cc2C1=O`, the cytotoxicity call was “inactive”.

Take `COc1ccc2c3c([nH]c2c1)[C@H](CO)N(Cc1ccc(cc1)Cl)C[C@]13CCN(CC1)Cc1ccccc1`: the cytotoxicity call was “active”.

As to `CC(C)CC#Cc1ccc2c(c1)O[C@@H](CN(C)C(=O)c1ccccn1)[C@@H](C)CN([C@H](C)CO)S2(=O)=O`, the cytotoxicity call is “inactive”.

In the case of `C[C@@H]1CN([C@@H](C)CO)C(=O)CCCn2nncc2CO[C@@H]1CN(C)S(=O)(=O)c1ccc(-c2ccccc2)cc1`, the cytotoxicity call was “inactive”.

Regarding `Cc1noc(C)c1S(=O)(=O)N(C)C[C@H]1Oc2ccc(NC(=O)C3CCCCC3)cc2CC(=O)N([C@@H](C)CO)C[C@@H]1C`, the cytotoxicity call was “inactive”.

As to `COc1ccc(/C=C/CN2CCC(C(=O)N[C@@H](c3ccc(F)cc3)c3ccc4ccccc4n3)CC2)cc1`, the cytotoxicity call was “active”.

In the case of `C[C@@H]1CN([C@H](C)CO)C(=O)Cc2cc(NS(=O)(=O)c3cccs3)ccc2O[C@@H]1CN(C)S(=O)(=O)c1cccs1`, the cytotoxicity call is “inactive”.

With `COCC#Cc1ccc2c(c1)O[C@@H](CN(C)C(=O)CN(C)C)[C@@H](C)CN([C@H](C)CO)S2(=O)=O`, the cytotoxicity call was “inactive”.

Take `Cn1cncc1C#N`: the cytotoxicity call was “inactive”.

In the case of `C[C@@H]1CN([C@@H](C)CO)C(=O)c2cc(NC(=O)c3ccncc3)ccc2O[C@@H](C)CCCCO[C@@H]1CN(C)Cc1ccc(C(F)(F)F)cc1`, the cytotoxicity call was “inactive”.

In the case of `CSc1ccc2cc(CN(C[C@H]3CCCO3)C(=O)c3ccco3)c(N(C)Cc3csc(C)n3)nc2c1`, the cytotoxicity call is “inactive”.

With `CCS(=O)(=O)Nc1ccc2c(c1)C(=O)N(C)[C@@H]1CC[C@H](CC(=O)NCc3ccccc3F)O[C@H]1CO2`, the cytotoxicity call was “inactive”.

Turning to `COC(=O)[C@@H](Cc1ccc(-n2cc(COc3ccccc3/C=C(C)/C=C/C(=O)NO)nn2)cc1)N1CC(/C=C/C2CC2)=C[C@H]1[C@H](O)Cc1ccccc1`, the cytotoxicity call was “inactive”.

Take `Cl.NCc1ccc(S(N)(=O)=O)cc1`: the cytotoxicity call is “inactive”.

`CCCNC(=O)Nc1ccc2c(c1)OC[C@H](C)N(Cc1ccc(-c3ccccn3)cc1)C[C@H](C)[C@H](OC)CN(C)C2=O`: the cytotoxicity call is “inactive”.

On to `COc1ccc(NC(=O)N(C)C[C@@H]2OCCCC[C@H](C)Oc3ccc(NC(=O)c4ccncc4)cc3C(=O)N([C@H](C)CO)C[C@H]2C)cc1`, for which the cytotoxicity call was “inactive”.

As to `C[C@H]1CCCCO[C@@H](CN(C)C(=O)C2CCCCC2)[C@@H](C)CN([C@@H](C)CO)C(=O)c2cc(NC(=O)CCC(F)(F)F)ccc2O1`, the cytotoxicity call was “inactive”.

On to `C[C@H](O)C#Cc1ccc2c(c1)O[C@@H](CN(C)C(=O)Cc1ccccn1)[C@H](C)CN([C@@H](C)CO)S2(=O)=O`, for which the cytotoxicity call is “inactive”.

With `C[C@H](CO)N1C[C@H](C)[C@@H](CN(C)S(=O)(=O)c2ccc(F)cc2)OCCCC[C@H](C)Oc2ccc(NS(=O)(=O)c3cn(C)cn3)cc2C1=O`, the cytotoxicity call was “inactive”.

Take `C[C@@H]1CN([C@H](C)CO)C(=O)c2cccc(NS(=O)(=O)c3ccc(Cl)cc3)c2O[C@@H]1CN(C)Cc1ccc(Cl)c(Cl)c1`: the cytotoxicity call was “inactive”.

With `COc1ccc2c3c(n(c2c1)C)[C@@H](CO)N(C[C@]13CCN(CC1)C(=O)Nc1cccc(c1)F)C(=O)C1CCCCC1`, the cytotoxicity call was “inactive”.

For the compound `C=CCC[C@@H](Cc1ccc(F)cc1)C(=O)O[C@@H](CNC(=O)[C@@H](CC=C)CC(=O)N(CCO)Cc1ccccc1)c1ccccc1`, the cytotoxicity call is “active”.

With `O=C(NS(=O)(=O)c1ccccc1)C1CC1`, the cytotoxicity call is “inactive”.

For the compound `C[C@H]1CN([C@@H](C)CO)C(=O)Cc2cc(NS(=O)(=O)c3cn(C)cn3)ccc2O[C@@H]1CN(C)C(=O)NC1CCCCC1`, the cytotoxicity call is “inactive”.

Take `C[C@H](CO)N1C[C@H](C)[C@H](CN(C)C(=O)C2CCOCC2)Oc2ncc(C#Cc3ccccc3F)cc2C1=O`: the cytotoxicity call was “inactive”.

For the compound `COc1ccc(S(=O)(=O)Nc2ccc3c(c2)C(=O)N([C@H](C)CO)C[C@H](C)[C@H](CN(C)C(=O)Nc2ccc4c(c2)OCO4)OCCCC[C@@H](C)O3)cc1`, the cytotoxicity call is “inactive”.

Consider `CO[C@H](C(=O)N(C)C[C@@H]1OCc2ccccc2-c2c(n(C)c3ccccc23)C(=O)N([C@H](C)CO)C[C@@H]1C)c1ccccc1`, for which the cytotoxicity call was “inactive”.

Turning to `C[C@H]1CN([C@@H](C)CO)S(=O)(=O)c2ccc(-c3ccc(F)cc3)cc2O[C@H]1CN(C)C(=O)C1CCOCC1`, the cytotoxicity call was “inactive”.

For the compound `CN(Cc1ccccn1)C(=O)[C@@]12COC[C@@H]1CN(S(C)(=O)=O)C2`, the cytotoxicity call is “inactive”.

In the case of `C[C@@H]1CCCCO[C@@H](CN(C)C(=O)Nc2ccc(F)cc2)[C@@H](C)CN([C@H](C)CO)C(=O)c2cc(NC(=O)c3ccncc3)ccc2O1`, the cytotoxicity call was “inactive”.

For the compound `C[C@@H]1CCCCO[C@@H](CN(C)Cc2ccc(C(=O)O)cc2)[C@H](C)CN([C@H](C)CO)C(=O)c2cc(NC(=O)C3CCCCC3)ccc2O1`, the cytotoxicity call was “inactive”.

Regarding `C[C@@H]1CCCCO[C@H](CN(C)Cc2ccc(Cl)c(Cl)c2)[C@H](C)CN([C@@H](C)CO)C(=O)c2cc(NC(=O)Nc3ccc(C(F)(F)F)cc3)ccc2O1`, the cytotoxicity call is “active”.

Regarding `CCOc1ccc(S(=O)(=O)[O-])c2cccnc12.[Na+]`, the cytotoxicity call is “inactive”.

For `Cc1noc(C)c1NC(=O)Nc1ccc2c(c1)C(=O)N([C@@H](C)CO)C[C@@H](C)[C@@H](CN(C)C(=O)Nc1cccc3ccccc13)O2`, the cytotoxicity call is “inactive”.

With `COc1ccc(NC(=O)Nc2ccc3c(c2)C(=O)N([C@@H](C)CO)C[C@@H](C)[C@@H](CN(C)C(=O)CCC(F)(F)F)OCCCC[C@H](C)O3)cc1`, the cytotoxicity call was “inactive”.

For the compound `CO[C@@H]1CN(C)C(=O)c2cc(NS(C)(=O)=O)ccc2OC[C@H](C)N(C(=O)C2CCOCC2)C[C@@H]1C`, the cytotoxicity call was “inactive”.

Consider `C[C@H](CO)N1C[C@H](C)[C@@H](CN(C)C(=O)NC2CCCCC2)Oc2ccc(NC(=O)c3ccncc3)cc2CC1=O`, for which the cytotoxicity call is “inactive”.
